Assay results published in PubChem BioAssay AID588342 (National Center for Advancing Translational Sciences (NCATS), 2011).
The whole screen tested about 360,000 compounds, of which about 25,000 (6.9%) were called active. The shares of active, inactive and inconclusive entries below differ from those in the screen. Calls follow the shape of the dose curve; as a rule, active = well fitted inhibition curve with a large enough effect; inconclusive = small, poorly fitted or top-dose-only effect; inactive = flat fitted curve, though single readings scatter. Where the call is inconclusive, the potency comes from a doubtful curve fit.

These compounds were tested against Luciferin 4-monooxygenase (Photinus pyralis) (UniProt P08659) (assay: qHTS profiling assay for firefly luciferase inhibitor/activator using purifed enzyme and Km concentrations of substrates (counterscreen for miR-21 project)). Settings: purified FLuc, luminescence inhibition; series mostly up to 57.5 µM.
Method in brief: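 Biochemical qHTS of compounds, final roughly 60 µM downward over six points, against 10 nM purified firefly luciferase using Km concentrations of substrates (10 uM D-luciferin, 10 uM ATP) in Tris acetate pH 7.5 buffer; luminescence output.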
Also: nearly all actives have a fitted effect of over 55% in size.
Potency is read from the fitted curve at half-maximal effect; tags tell the direction and shape of the fitted curve.

Chain of UniProt P08659 (P08659 whole entry, looked up): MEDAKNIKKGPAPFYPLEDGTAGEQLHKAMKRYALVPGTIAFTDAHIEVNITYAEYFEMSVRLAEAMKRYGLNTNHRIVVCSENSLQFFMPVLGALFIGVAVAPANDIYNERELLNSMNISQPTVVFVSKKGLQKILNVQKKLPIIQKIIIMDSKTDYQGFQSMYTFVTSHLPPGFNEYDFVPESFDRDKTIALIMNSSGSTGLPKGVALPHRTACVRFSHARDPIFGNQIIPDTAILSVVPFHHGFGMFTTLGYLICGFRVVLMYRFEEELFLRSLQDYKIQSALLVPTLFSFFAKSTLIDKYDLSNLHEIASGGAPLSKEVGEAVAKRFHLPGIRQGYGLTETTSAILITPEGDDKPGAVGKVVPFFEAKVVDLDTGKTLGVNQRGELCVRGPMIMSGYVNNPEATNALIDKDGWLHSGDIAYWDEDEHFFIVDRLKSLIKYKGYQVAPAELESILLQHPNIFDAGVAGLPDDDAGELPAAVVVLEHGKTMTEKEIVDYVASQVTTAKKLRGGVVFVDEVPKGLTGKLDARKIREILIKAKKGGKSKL

| Compound | Potency |
| --- | --- |
| O=C(NC(=S)N1CCCc2ccccc21)c1ccc(Cl)cc1 | active: 6.75 µM |
| O=C(Nc1ccc2c(c1)OCCO2)c1c[nH]c(=O)n(-c2ccc(F)c(Cl)c2)c1=O | inconclusive: 37.9 µM [inhibitor, partial curve, poor fit] |
| N#C/C(=C/c1ccccc1)C(=O)NCc1ccccc1 | inconclusive: 42.6 µM [inhibitor, partial curve, poor fit] |
| Cc1cc2c(=O)oc(-c3ccc(Br)cc3)nc2s1 | active: 1.9 µM |
| COc1ccc(N2CCN(CC(O)COc3ccccc3C(C)(C)C)CC2)cc1 (stereo not drawn) | inactive |
| COc1ccc(CN2C(=O)c3cccnc3C2=O)cc1S(=O)(=O)NC1CCCCC1C (stereo not drawn) | inactive |
| [O-]/[N+](=C\c1ccncc1)c1ccccc1 | inconclusive: 33.8 µM [inhibitor, single point] |
| C=CCOc1ccc(/C=N/NC(=O)c2cc3c(OC)cc(OC)cc3[nH]2)cc1 | inconclusive: 21.3 µM [inhibitor, partial curve, poor fit] |
| C/C(Cl)=C\COc1cc(C)nc2c(Br)cccc12 | inconclusive: 37.9 µM [inhibitor, partial curve, poor fit] |
| COc1cc(OC)c2c(c1)C(=O)OC2 | inactive |
| O=C(c1cc2cc(Br)ccc2o1)N1CCOCC1 | active: 21.3 µM |
| CCOC(=O)/C(C#N)=N/Nc1ccccc1OC | inconclusive: 9.53 µM [inhibitor, partial curve, poor fit] |
| Cc1[nH]n(-c2ccccc2)c(=O)c1C=NC1CCCCC1 | inconclusive: 37.9 µM [inhibitor, partial curve, poor fit] |
| Cc1c(C(=O)NCCc2ccc3c(c2)OCCO3)oc2ccccc12 | active: 19 µM |
| CC(=O)Nc1cccc(NC(=O)c2ccc([N+](=O)[O-])cc2Cl)c1 | inconclusive: 37.9 µM [inhibitor, single point] |
| CN(Cc1cccs1)C(=O)CCCc1c[nH]c2ccccc12 | active: 26.9 µM |
| Cc1nnc(NC(=O)c2ccccc2Br)s1 | inconclusive: 26.9 µM [inhibitor, partial curve, poor fit] |
| CCOC(=O)c1cccc(NC(=O)CC2C(=O)N(c3ccc(F)cc3)C(=O)N2C(C)C)c1 (stereo not drawn) | inactive |
| Cc1cc(C)c2nc(-c3ccco3)cc(C(=O)O)c2c1 | inconclusive: 19 µM [inhibitor, single point] |
| COC(=O)CCCCCN1C(=O)/C(=C\c2ccncc2)SC1=S | inactive |
| CCOc1cc(/C=N\NC(=O)Cc2ccccc2)ccc1OCC(=O)Nc1ccc(C)c(C)c1 | inactive |
| Oc1ccc(Cl)cc1-c1cc(-c2ccccc2)n[nH]1 | inconclusive: 23.9 µM [inhibitor, single point] |
| COc1ccc(-n2ncc3c(=O)n(Cc4c(F)cccc4Cl)cnc32)cc1 | inconclusive: 30.1 µM [inhibitor, partial curve, poor fit] |
| O=C(Nc1ccc2ccccc2c1)Nc1ccc2snnc2c1 | inconclusive: 26.9 µM [inhibitor, partial curve] |

| Compound | Potency |
| --- | --- |
| O=C(Nc1ncc(Cc2cccc([N+](=O)[O-])c2)s1)c1ccco1 | inconclusive: 37.9 µM [inhibitor, single point] |
| CCSc1nnc(NC(=O)CSC2=NCCS2)s1 | inconclusive: 23.9 µM [inhibitor, partial curve, poor fit] |
| Cc1ccc(C(=O)NCC(=O)OCc2nnc(-c3ccccc3)o2)cc1 | inconclusive: 21.3 µM [inhibitor, partial curve, poor fit] |
| CCCNC(=O)c1noc2c1CCc1cc(OC)ccc1-2 | active: 4.26 µM |
| Cc1ccc(C(=O)N/C(=C\c2cccs2)C(=O)NCCc2c[nH]c3ccccc23)cc1C | inconclusive: 23.9 µM [inhibitor, single point] |
| CSc1ccccc1NC(=O)COc1ccc(Cl)cc1C | inconclusive: 23.9 µM [inhibitor, single point] |
| Cc1ccc(C(=O)N2CCN(c3ccccn3)CC2)cc1Cl | inactive |
| COc1ccc(/C(N)=N/OC(=O)CCC2CCCC2)cc1OC | inconclusive: 37.9 µM [inhibitor, single point] |
| Cc1noc(/C=C/c2ccco2)c1S(=O)(=O)N1CCC(C(=O)Nc2ccc(F)cc2F)CC1 | inactive |
| CN1CCN(/N=C/c2ccc(Cl)c(Cl)c2)CC1 | active: 19 µM |
| Fc1ccc(NCc2cn3ccccc3n2)cc1 | active: 15.1 µM |
| COc1nc(N)nc(N2CCOCC2)n1 | inactive |
| FC(F)(F)c1ccc2c(c1)nc1n2CCCC1 | inconclusive: 23.9 µM [inhibitor, partial curve, poor fit] |
| Cc1ccc(C(=O)NC2CCC(C)CC2)s1 (stereo not drawn) | inconclusive: 3.38 µM [inhibitor, partial curve] |
| Cc1ccc(-c2cc(C(=O)NCc3ccccn3)c3ccccc3n2)cc1 | active: 4.26 µM |
| COc1ccc(CCNC(=O)CCc2c(C)nc3cc(-c4ccccc4)nn3c2C)cc1OC | inconclusive: 21.3 µM [inhibitor, partial curve] |
| C/C(=N\NC(=O)c1ccco1)c1cc2ccccc2o1 | inconclusive: 19 µM [inhibitor, partial curve] |
| CCCOc1cccc(C(=O)NC(=S)Nc2ccc(N3CCN(C)CC3)cc2)c1 | inconclusive: 26.9 µM [inhibitor, partial curve] |
| CCOc1ccc(NC(=O)COC(=O)C2(C)CC2(Cl)Cl)c([N+](=O)[O-])c1 (stereo not drawn) | inconclusive: 26.9 µM [inhibitor, partial curve, poor fit] |
| CN(CCc1ccccn1)Cc1ccc(Cl)cc1Cl | inconclusive: 26.9 µM [inhibitor, single point] |
| O=C(CCc1ccccc1)NCCC1=CCCCC1 | inconclusive: 16.9 µM [inhibitor, partial curve] |
| COC(=O)c1sc(-c2ccc(Cl)cc2)cc1NC(=O)/C=C/C(=O)O | active: 9.53 µM |
| O=C(O)CSc1ncnc2nc[nH]c12 | inactive |
| Cn1c(NC(=O)c2ccccc2)nc2ccccc21 | active: 6.75 µM |
